The values that follow come from patent publication US20090162366A1.

For assay [1], the target named is M2-BSA conjugate (influenza A virus, A/Hong Kong/1/68 (H3N2)). The assay can be described thus: peptide-BSA ELISA (++ EC50<10^-9M; + 10^-9M<EC50<10^-8M).
In assay [2] the target is M2 peptide (influenza A virus, A/Hong Kong/1/68 (H3N2)). Kind of assay: ELISA on peptide, Ab 10 µg/ml.

Some results are limits rather than exact numbers.

B1: N547 (antibody, V domains shown)
VH: [letters of about 100 residues left out]HLRYFDWLSDYWGQGTLVTVSS
VL: QSVLTQPPSMSAAPGQKVTISCSGSSSNIGNNYISWYQQLPGTAPKVLIYDNNKRPSGIPDRFSGSKSGTSATLGITGLQTGDEADYYCGSWDSSLSAGVFGTGTKVTVLG
Consider B1, for which the EC50 in assay [1] was less than 1 nM. Also, in assay [2], the ELISA(OD450) was 0.51 OD450.
